# Experimental data taken from PubChem BioAssay AID360 (National Center for Advancing Translational Sciences (NCATS), 2006).
# In all, about 48,000 compounds went through this assay and about 550 (1.1%) were called active. Not shown: some 4% with an inconclusive outcome. Cut-off read from the data, not from the text of the source: active = potency below about 15 µM; inconclusive = mostly about 16 µM to 33 µM; inactive = weaker than that. The list shows a part of the results.
# Biological target: Lysosomal acid glucosylceramidase (Homo sapiens) (UniProt P04062)
# Sequence of UniProt P04062 (P04062 whole entry, looked up): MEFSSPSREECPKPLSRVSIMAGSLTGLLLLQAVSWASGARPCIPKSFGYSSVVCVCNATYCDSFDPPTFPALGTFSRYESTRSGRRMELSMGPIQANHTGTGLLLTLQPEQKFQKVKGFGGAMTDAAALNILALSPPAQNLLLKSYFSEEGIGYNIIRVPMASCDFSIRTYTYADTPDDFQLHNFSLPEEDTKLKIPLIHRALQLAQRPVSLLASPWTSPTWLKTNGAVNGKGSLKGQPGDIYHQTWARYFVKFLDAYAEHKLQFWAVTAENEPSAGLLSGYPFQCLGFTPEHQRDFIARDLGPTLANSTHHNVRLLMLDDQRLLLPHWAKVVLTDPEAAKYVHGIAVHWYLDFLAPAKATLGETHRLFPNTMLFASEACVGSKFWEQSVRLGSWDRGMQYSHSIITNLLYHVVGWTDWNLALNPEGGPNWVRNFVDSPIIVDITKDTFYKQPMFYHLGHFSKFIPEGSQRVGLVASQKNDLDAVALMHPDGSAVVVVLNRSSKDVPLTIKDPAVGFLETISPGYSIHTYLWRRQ
# Assay: Glucocerebrosidase;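 note: the screen sought inhibitors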
# Settings: purified enzyme, resorufin glucoside fluorescence (screen aimed at inhibitors), 20 min; series mostly up to 77 µM
# How it was run: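 Normal human glucocerebrosidase (0.2 nM final) was assayed with resorufin β-D-glucopyranoside (30 uM final) in 50mM citric acid/KH2PO4, 10mM sodium taurocholate, 0.01% tween-20, pH 5.9. Compounds were titrated; fluorescence (Ex 548, Em 600) read after 20 min at RT.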
# Potency is the fitted concentration of half-maximal effect.
row,Compound,Potency
1,CCCn1c(SCC(N)=O)nnc1C(C)C,inactive: > 76.9 µM
2,COC(=O)c1sc(NC(=O)c2ccc(OC)cc2OC)nc1C,inactive: > 76.9 µM
3,CN(c1ccc(C(=O)NCCSC(C)(C)C)cc1)S(C)(=O)=O,inactive: > 76.9 µM
4,COc1cc(OC)nc(NC(=O)CSc2nc3ccccc3[nH]2)n1,inactive: > 76.9 µM
5,CCn1cc(CNC(=O)CCc2ccc(OC)cc2)cn1,inactive: > 76.9 µM
6,O=C(NCc1n[nH]c(=S)n1-c1ccc(F)cc1)c1ccco1,inactive: > 76.9 µM
7,COc1ccc(C(c2nnnn2Cc2ccc(F)cc2)N2CCN(c3ccccc3)CC2)cc1 (stereo unspecified),inactive: > 76.9 µM
8,O=C(COC(=O)CCc1c[nH]c(=O)[nH]1)Nc1ccccc1Cl,inactive: > 76.9 µM
9,O=S1(=O)CCC(NS(=O)(=O)/C=C/c2ccccc2)C1 (stereo unspecified),inactive: > 76.9 µM
10,CC(NC(=O)CN1C(=O)COc2ccccc21)c1ccccc1 (stereo unspecified),inactive: > 76.9 µM
11,Cc1ccc(OCc2nn3c(-c4ccco4)nnc3s2)cc1,inactive: > 76.9 µM
12,Cc1cnn(C(=S)NCC2CCCO2)c1 (stereo unspecified),inactive: > 76.9 µM
13,O=C(Nc1ccc(Oc2ccccc2)cc1)C1CCCN(c2ncccn2)C1 (stereo unspecified),inactive: > 76.9 µM
14,COc1ccc(C)cc1NC(=O)c1ccc(NC(=O)CC2SC(N3CCCC3)=NC2=O)cc1 (stereo unspecified),inactive: > 76.9 µM
15,CN(C=O)CP(=O)(O)CCN1CCCC1=O,inactive: > 76.9 µM
16,CCN1C(=O)c2cccc3c(S(=O)(=O)NC(Cc4c[nH]c5ccccc45)C(=O)O)ccc1c23 (stereo unspecified),inactive: > 76.9 µM
17,CCN(CC)CCN1C(=O)C(=O)/C(=C(/O)c2cnn(-c3ccccc3)c2C)C1c1cccnc1 (stereo unspecified),inactive: > 76.9 µM
18,O=C(COc1ccccc1)N1CCNC1=O,inactive: > 76.9 µM
19,Cc1csc(OCc2ccc(C#N)cc2)n1,inactive: > 76.9 µM
20,O=C(COc1nsnc1N1CCOCC1)N1CCOCC1,inactive: > 76.9 µM
21,COc1ccc(CCNC(=O)c2nc3ncccn3n2)cc1OC,inactive: > 76.9 µM
22,CCNC(=O)Cn1cnc2c1c(=O)n(C)c(=O)n2C,inactive: > 76.9 µM
23,CC[C@@H](C)[C@H](NS(=O)(=O)c1ccc(C)cc1)C(=O)N1CCC(C(=O)NCC(=O)O)CC1,inactive: > 76.9 µM

row,Compound,Potency
1,CCOC(=O)CNC(=O)CSc1nc2nc(C)c(Br)cc2[nH]1,inactive: > 76.9 µM
2,C=CCn1c(=O)c2ccccc2n2c(SCc3cc(=O)n4ccsc4n3)nnc12,inactive: > 76.9 µM
3,O=C(NC1CCCCC1)N1CCN(CCc2ccccc2)CC1,inactive: > 76.9 µM
4,CCOc1ccc(OCCSc2nnnn2C2CCCCC2)cc1,inactive: > 76.9 µM
5,CCOC(=O)c1c(NC(=O)CSc2nnnn2-c2ccc3c(c2)OCO3)sc(C)c1C,inactive: > 76.9 µM
6,CC(=O)Nc1cccc(C(=O)N2CCN(Cc3ccccc3)CC2)c1,inactive: > 76.9 µM
7,CCN(CC)S(=O)(=O)N1CCC(C(=O)NCC2COc3ccccc3O2)CC1 (stereo unspecified),inactive: > 76.9 µM
8,CCn1cc(CN(C)C(=O)CSc2nc(-c3ccco3)cc(C(F)(F)F)n2)c(C)n1,inactive: > 76.9 µM
9,O=C(COc1ccc(Cl)cc1)N1CCN(c2ncccn2)CC1,inactive: > 76.9 µM
10,CCOc1cc(C)nc(N2CCCC(C(=O)NCc3ccccc3F)C2)n1 (stereo unspecified),inactive: > 76.9 µM
11,COc1ccc(C2C(C(=O)N3CCC(C)CC3)c3ccccc3C(=O)N2C)cc1 (stereo unspecified),inactive: > 76.9 µM
12,COc1ccc(CC(=O)Nc2cccc(-c3nnc(-c4cccc(C)c4)o3)c2)cc1OC,active: 10.8 µM
13,CCOCc1cc(C)[nH]c(=O)c1C#N,inactive: > 76.9 µM
14,O=C(NCc1ccccn1)Nc1ccc(F)cc1,inactive: > 76.9 µM
15,Cc1ccc(-c2nnc(SCc3ccccc3F)o2)cc1,inactive: > 76.9 µM
16,CCC(=O)N1CCN(c2ccc(NC(=O)c3ccco3)cc2)CC1,inactive: > 76.9 µM
17,O=C(CSc1nc2c(c(=O)n1-c1ccc(F)cc1)SCC2)Nc1ccc2c(c1)OCO2,inactive: > 76.9 µM
18,COC(=O)c1nc(NC(=O)c2ccc(Cl)cc2)n[nH]1,inactive: > 76.9 µM
19,Cc1cccc(N(C(=O)CCC(=O)Nc2cc(C)on2)C(C(=O)NC2CCCC2)c2ccncc2)c1 (stereo unspecified),inactive: > 76.9 µM
20,O=C(COc1cccc(NC(=O)c2ccco2)c1)c1ccccc1,inactive: > 76.9 µM
21,Cc1cc(=O)oc2cc(OCC(=O)OCC(=O)N3CCc4ccccc43)ccc12,inactive: > 76.9 µM
22,CCS(=O)(=O)N1CCN(C(=O)c2cc(OC)cc(OC)c2)CC1,inactive: > 76.9 µM
23,CCn1c(=O)cc(SCC(=O)NCc2ccc3c(c2)OCO3)c2ccccc21,inactive: > 76.9 µM
